# From the supplement of paper PMC4166925
# ± gives the standard deviation of the averaged measurements. Whole data set: some 33,000 sequences, median “E-score (dimensionless, -0.5 to 0.5)” near -0.046, cut for the highest 2% near 0.36. Some of the results follow.
# Test system: T1, SpTbr T-box DNA-binding domain (GST fusion)
# T1 sequence: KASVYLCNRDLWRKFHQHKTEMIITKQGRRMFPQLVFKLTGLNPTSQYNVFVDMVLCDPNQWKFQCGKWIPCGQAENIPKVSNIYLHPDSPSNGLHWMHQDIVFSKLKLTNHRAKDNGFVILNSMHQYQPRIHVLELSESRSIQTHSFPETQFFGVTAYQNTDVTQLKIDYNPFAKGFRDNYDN
# Assay: PBM E-score of 8-mer (E-score (dimensionless, -0.5 to 0.5)); Tbr is Tbrain of the sea star Patiria miniata (Pm) or the sea urchin Strongylocentrotus purpuratus (Sp); higher = stronger binding preference; most listed sequences are background and not binding sites
# Conditions: the construct has about 5 more residues each side
# How it was run: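 Each ungapped 8-mer received an enrichment E-score from the Universal PBM Analysis Suite, averaged over duplicate arrays. The proteins were Tbr T-box DNA-binding domains, covering the whole T-box plus about five flanking residues, fused to GST and expressed in BL21 E. coli at 20 °C before glutathione affinity purification. Universal Agilent oligonucleotide arrays were made double-stranded by primer extension and incubated with 200 nM protein in PBS (pH 7.5). The arrays were then scanned and quantified, and every 8-mer was scored from probe intensities.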
row,Sequence,PBM E-score of 8-mer
1,AAAAGGGA,-0.296 ± 0.049
2,CGCGTTGA,0.201 ± 0.0023
3,CCGAAGAC,-0.145 ± 0.042
4,CTCTAGCC,0.0654 ± 0.052
5,ATCCAGGC,-0.1996 ± 0.00042
6,GGAAGCCC,-0.222 ± 0.054
7,CTCGCCGC,0.206 ± 0.036
8,CGTAGAGA,-0.122 ± 0.041
9,AACCCGAG,-0.0736 ± 0.019
10,CGATATAC,-0.128 ± 0.051
11,GGTCCCTA,-0.213 ± 0.07
12,ACCGGAGA,0.0981 ± 0.047
13,GCCCTCAA,-0.204 ± 0.0095
14,CTGTCGTA,-0.052 ± 0.067
15,GTAATGAC,0.0406 ± 0.034
16,GTTTTACA,0.0296 ± 0.0089
17,CTCTATTC,-0.155 ± 0.023
18,ATCCACGC,0.128 ± 0.052
19,CACTGCGA,0.0166 ± 0.0051
20,ACGTGCTA,0.359 ± 0.0084
21,CTTCTCAA,0.0891 ± 0.045
22,AGGAGACA,-0.0352 ± 0.023
23,CTGGGTTC,-0.241 ± 0.068
24,GTAAGAGA,-0.143 ± 0.02
25,ACCTTTAT,0.0881 ± 0.012

row,Sequence,PBM E-score of 8-mer
1,GCGTACCC,-0.0518 ± 0.0098
2,CAATTCGC,0.244 ± 0.0073
3,GCATCGGC,-0.332 ± 0.039
4,GGCGGAGA,0.0127 ± 0.0063
5,GTCTAAGA,-0.0378 ± 0.089
6,GTAGGTTA,-0.184 ± 0.0098
7,TATTGCGA,0.103 ± 0.023
8,CTGGTATA,-0.203 ± 0.012
9,TCCCGCCA,0.073 ± 0.025
10,GGCTTATA,-0.269 ± 0.071
11,ACCGAGTA,-0.0637 ± 0.071
12,ATTGGGCG,0.0176 ± 0.068
13,AATCACGC,0.321 ± 0.015
14,CTATTTAC,-0.0783 ± 0.043
15,ATATATTG,-0.197 ± 0.0055
16,GAGCTGAA,-0.146 ± 0.045
17,CGTCTCAC,0.272 ± 0.016
18,AATGCAAG,-0.259 ± 0.011
19,CAATCCGC,-0.0196 ± 0.012
20,CGAGAGAC,-0.166 ± 0.051
21,GCGAGTGA,0.18 ± 0.032
22,AACATCAA,-0.0537 ± 0.037
23,TGGTAAAA,-0.0951 ± 0.025
24,ACTAAGAT,0.093 ± 0.053
25,CGTAGGTC,-0.24 ± 0.02

row,Sequence,PBM E-score of 8-mer
1,ATAGAGGG,-0.184 ± 0.031
2,ACTTCTCC,-0.0458 ± 0.018
3,ATACCTAT,-0.0845 ± 0.068
4,CAAGCCTG,-0.0299 ± 0.016
5,ATGTTGCC,-0.0112 ± 0.089
6,GCGTTCAC,0.239 ± 0.011
7,ACTACAGT,-0.139 ± 0.0078
8,TCATGTAA,-0.102 ± 0.042
9,AGCGGCCC,-0.273 ± 0.1
10,AAATGCGT,0.0194 ± 0.0015
11,GAGTCTGA,-0.228 ± 0.03
12,ATTTGTAC,-0.0828 ± 0.0039
13,CATAGACA,-0.149 ± 0.015
14,AAGATTAA,-0.0784 ± 0.0081
15,GAAACCTA,0.0218 ± 0.0061
16,GACCCTTA,-0.0355 ± 0.033
17,CATTCCTC,-0.0883 ± 0.013
18,AAGCTACA,0.00216 ± 0.035
19,ATGCTTAA,-0.224 ± 0.021
20,CATCACGC,0.263 ± 0.021
21,ATTAGGTC,-0.0878 ± 0.021
22,AGCACTTA,0.242 ± 0.026
23,GTTGTTCA,0.0496 ± 0.026
24,TAGTACTA,-0.189 ± 0.057
25,GAATTAAA,-0.0537 ± 0.037

row,Sequence,PBM E-score of 8-mer
1,ACCGCCGG,0.0158 ± 0.017
2,CTACGTTA,-0.186 ± 0.047
3,ATTATTAG,-0.0717 ± 0.017
4,GGTCTCAA,-0.0536 ± 0.098
5,AGCATGCT,-0.0183 ± 0.016
6,CGACACAG,0.192 ± 0.079
7,CCCAACAA,0.13 ± 0.0093
8,CTAGATCC,-0.352 ± 0.023
9,CCTAAACC,-0.0694 ± 0.039
10,GCCTGTGA,0.187 ± 0.0033
11,GTCGTCAC,0.337 ± 0.025
12,ACGGTGAA,-0.167 ± 0.038
13,ATTTTGGG,-0.152 ± 0.032
14,CAAACTTA,0.0728 ± 0.018
15,CACATACA,0.253 ± 0.0045
16,AACTACCA,-0.0851 ± 0.02
17,GGTCGTCA,0.129 ± 0.061
18,CACCACGG,0.133 ± 0.0043
19,GCTCTGCA,-0.124 ± 0.035
20,AAGCTTAA,-0.247 ± 0.042
21,CTAAACCC,-0.144 ± 0.058
22,TTCTCAAA,-0.122 ± 0.02
23,CCAGTTTC,-0.00356 ± 0.037
24,CACCCAGG,0.224 ± 0.045
25,CCACGGAG,-0.172 ± 0.095

row,Sequence,PBM E-score of 8-mer
1,AAGCTAAG,-0.185 ± 0.018
2,TCCAAGAA,-0.0873 ± 0.017
3,CAGGGTCC,0.0172 ± 0.013
4,CAGATTAC,-0.0601 ± 0.0021
5,ACGATGTA,-0.136 ± 0.027
6,CGATGATA,-0.0245 ± 0.038
7,CGAGCGTA,-0.285 ± 0.044
8,CATAGCTC,-0.275 ± 0.021
9,ACAGTGGA,-0.0414 ± 0.025
10,CTTAATAC,0.0605 ± 0.042
11,ACCTCTCC,-0.0172 ± 0.03
12,AAAGATCG,-0.00473 ± 0.012
13,CGTCTCAG,-0.173 ± 0.00035
14,GAAGGGAA,0.0014 ± 0.008
15,AACTCGAG,-0.0237 ± 0.054
16,GAATTTGA,-0.2 ± 0.13
17,TAAGACTA,-0.189 ± 0.048
18,GAGAATCC,0.0965 ± 0.055
19,CAGGGAAG,-0.2 ± 0.0062
20,CGGAGAAC,-0.0862 ± 0.029
21,TACGCTCA,-0.0725 ± 0.047
22,GCGTCCAA,-0.103 ± 0.0019
23,GTGATAAA,0.305 ± 0.051
24,TGGCGAAA,0.0423 ± 0.038
25,TAGCACAA,0.117 ± 0.028

row,Sequence,PBM E-score of 8-mer
1,CTTCAATA,-0.187 ± 0.046
2,AACAGTGA,0.0784 ± 0.029
3,GTACAGTA,0.173 ± 0.036
4,AGTCACAG,0.0674 ± 0.028
5,CCCCCGCA,-0.128 ± 0.051
6,CAGAAAGG,-0.2263 ± 0.0013
7,TTACGCAA,0.00583 ± 0.056
8,CTGTGTTC,0.0692 ± 0.0081
9,AACGCATA,0.0089 ± 0.0093
10,CAATACCC,-0.159 ± 0.02
11,TCCGAAGA,-0.307 ± 0.0031
12,CGATGGCA,0.165 ± 0.0061
13,CGCAATAG,-0.0156 ± 0.11
14,ACCGACGG,-0.13 ± 0.045
15,AATTGTAA,-0.124 ± 0.12
16,ACAGGGAA,-0.273 ± 0.018
17,AGCCCAGC,-0.267 ± 0.0077
18,AGCTAATC,-0.0328 ± 0.0048
19,TAGCCAGA,-0.326 ± 0.06
20,GTCCACGA,-0.0408 ± 0.034
21,GGAGCTAC,-0.155 ± 0.037
22,AGAGTCTG,-0.33 ± 0.089
23,ACGCTCGC,0.19 ± 0.084
24,TGTTACAA,0.247 ± 0.046
25,GTACTCGA,-0.00204 ± 0.0087

row,Sequence,PBM E-score of 8-mer
1,GAGATCTA,-0.0537 ± 0.0086
2,CATATGAA,-0.148 ± 0.044
3,GCCCACCA,-0.178 ± 0.058
4,CCCAAGCG,-0.0978 ± 0.034
5,AACTTGTA,-0.0543 ± 0.038
6,ATTAACAC,0.45 ± 0.015
7,CTTTGGTA,-0.023 ± 0.017
8,AGGAACGG,0.0852 ± 0.053
9,CTTAAAGA,-0.0599 ± 0.027
10,CATAACAG,0.000675 ± 0.037
11,GAGTGTCA,0.4478 ± 0.0016
12,AGAGTGCA,0.127 ± 0.04
13,TAGACGAA,-0.149 ± 0.054
14,AAGAACCC,-0.0115 ± 0.01
15,ACCATAAA,0.045 ± 0.039
16,CCCAATAC,-0.222 ± 0.014
17,ATTTACCC,-0.058 ± 0.013
18,GGAGTGTA,0.0111 ± 0.00078
19,ATTTCTAC,-0.132 ± 0.011
20,ACTACTTG,0.154 ± 0.023
21,GCACGTGA,0.224 ± 0.057
22,AACTTAAC,0.0557 ± 0.049
